B1: chr5:173380165:173380166:+_ENSG00000113742_ENST00000334035|hu_hu|motif|central (ssRNA)
RNA: GGGAGUUCUACAGUCCGACGAUCCACCCGUUUAUCUAUCUCUCCAUGCUGCAGCUGAACAAAGCGGGCACUGAUAGCAGCGGUGUAACUCUGUUGAUUAGAGAACGCAACUCUCCCAGCUCCUUUUGGGUAUUUUAGCUCAGGCAACAGAGGAUUGAGCAUCA
B2: chr15:25616465:25616466:-_ENSG00000114062_ENST00000438097|hu_hu|motif|central (ssRNA)
RNA: GGGAGUUCUACAGUCCGACGAUCCGCUUUGCAAAAUAAUGGCAAAGCCAUUUCCAGAUAUUCAGGACUGUGGAGAUUUCGGUUCUCCAUUACGAUAAUGAACAAAUUCAGAUAAUUAGGAUCUCGAGAGUAUACAUUGUGAUACAACAGAGGAUUGAGCAUCA
B3: chr10:57943292:57943293:+_ENSMUSG00000003226_ENSMUST00000003310|mus_hu|FALSE|FALSE (ssRNA)
RNA: GGGAGUUCUACAGUCCGACGAUCCAAAGACCCAGUGGCUGAACUGUUGCCGAAUGCAAAUGGUUUUGAUUUUUCACUACUAAAAAUGCUUUUAACAGACUCUGAACCAAAUACAAACUUUGGAGGAGAAACCACUGCUUUUGGCAACAGAGGAUUGAGCAUCA
B4: chr4:144460044:144460045:+_ENSG00000153147_ENST00000283131|hu_mus|hu_hu_hu_mus_False|1_1 (ssRNA)
RNA: GGGAGUUCUACAGUCCGACGAUCACGGUCCAUAGCCUGAAGAUCAACUUGCGGAUUCCAAUCUGAGUCAUAUAAAAUGACUACAUCAGCAGUUGCAAGAUUGAUGCCCAGACCACCAGCACGUGUGCUUAGCAUAAAAACAAACAACAGAGGAUUGAGCAUCA
B5: chr4:58499471:58499472:-_ENSMUSG00000038668_ENSMUST00000055018|mus_mus|FALSE|FALSE (ssRNA)
RNA: GGGAGUUCUACAGUCCGACGAUCAGCGUAGAGAACCACCAUGACCACAAAGGUCACCAGGUUGAAAAUGGCCCAGAAGACUAAGUAGGAGUCACUGUAGAGGGGUGCCAUGUUGGAACAGUGAUCGAUAUCACAGAUGCAGUUCAACAGAGGAUUGAGCAUCA
B6: chr18:58099821:58099822:+_ENSMUSG00000024597_ENSMUST00000115366|mus_mus|motif|central (ssRNA)
RNA: GGGAGUUCUACAGUCCGACGAUCAUUUUCUUUUUUUGGCUUGGUGUUGAUAUCUCCAAGGACCAUGAUAUCAGAGAAGUCGGUCCGGAAUUUACUCAAUAAAGUAGCCAUCGCUCUCCGGUCAUGGUCUAUUCUGUUUAUUUUCAACAGAGGAUUGAGCAUCA
B7: chr12:39687257:39687258:-_ENSG00000139116_ENST00000551264|hu_hu|FALSE|FALSE (ssRNA)
RNA: GGGAGUUCUACAGUCCGACGAUCAAAAUCCAGUCAACAACUUUUAAAAAUUCAUACAGGCACAACACAAGAUAGUCUCUCUAUACAAUCUACCUAUUUACAUAGCUUUUCCCACCACAGAUGAUAAUAGCUCUCAUCAUAGCUCAACAGAGGAUUGAGCAUCA
B8: 168315348_168315897_2265_CDS_ENSG00000130396_ENST00000400822|human|control|control (ssRNA)
RNA: GGGAGUUCUACAGUCCGACGAUCGCAGCGUCGUAGCAAGGACAUGGCUCCUGUGAGCGUGUGCAGCACAUCAUCUAUUUUUGGUCGUUGCAGACUGUUCUCUUCAGGGUCAUCUAGAAAGGCUGGCAUGUAAUUAUUAAGUUCCAACAGAGGAUUGAGCAUCA
B9: chrX:140365678:140365679:-_ENSMUSG00000031285_ENSMUST00000033642|mus_mus|FALSE|FALSE (ssRNA)
RNA: GGGAGUUCUACAGUCCGACGAUCGUCAGAAGAAACAGCGUACACAAUCCCCUUGAAGUAACGGUCCCCAUUGCGGUAGAAACGUACCUUCUUGGCCUUCUUCUCAUUACUUAAUGCCUGCAAGGUUCUGGUUCUGUAGAAGCUCAACAGAGGAUUGAGCAUCA
B10: chr4:17845017:17845018:+_ENSG00000109805_ENST00000514176|hu_mus|hu_hu_hu_mus_False|58_98 (ssRNA)
RNA: GGGAGUUCUACAGUCCGACGAUCGCUCUCUUAACUUGAUCUUCAUUUAAGGAACUCUGCAAGGUUAAGUUUACUUUUUCUAGUGCUAGCUGUUUUGGCUCGUCUGGGUAAUCUCAUCUUCAUUUCUGAUGGUGGUUCAUGAUCCAACAGAGGAUUGAGCAUCA
B11: chr2:179515052:179515053:+_ENSMUSG00000000305_ENSMUST00000000314|mus_hu|mus_mus_mus_hu_False|1_58 (ssRNA)
RNA: GGGAGUUCUACAGUCCGACGAUCGCUGUCCCAUGCAGUCACCGUGAACGCCACCUGCUCGGAGGGGACCUGCAGCUCCCUAGUGGCGAAGACUGUCCCAUCUGCCCCAACUUUGAAGUCCAUGCUGUUGGUCUCAUACUGCAUCAACAGAGGAUUGAGCAUCA
B12: chr1:168153195:168153196:+_ENSG00000143155_ENST00000367833|hu_mus|motif|central (ssRNA)
RNA: GGGAGUUCUACAGUCCGACGAUCUAGAACGUUGUCUCCAAACAUCAUUUCAGGGAGGGAUGGCAUGUGCAGCUCGUCAGCGGACUUUUCCACAUCCGCAGACUUCAUGAUGUGGGUCUUGGACGCCGUCAGCUUCCAAGGCCCCAACAGAGGAUUGAGCAUCA
B13: 4744489_4745162_5046_CDS_ENSMUSG00000067889_ENSMUST00000008991|mouse|control|control (ssRNA)
RNA: GGGAGUUCUACAGUCCGACGAUCCUCUUUGAGGUCUGCAAUCCGGGGCUCAUGGCCCUGGAUCUCCUUCUGCAGGGUCUGGUUUUUCUUCAUGAGAAGCUGGACACUGGGCAAGUCCUUGCCAUGUUCCAGAGAGCUGGCCAUCAACAGAGGAUUGAGCAUCA
B14: chr1:220276048:220276049:+_ENSG00000067704_ENST00000302637|hu_hu|hu_hu_hu_mus_True|1_88 (ssRNA)
RNA: GGGAGUUCUACAGUCCGACGAUCGCAAAUUGCCUGGUUGGCGGGAAUCGUCCAAGGCUGGGUGGUCCAAACUAAAACGCUAACAGGGGAUGAGGCAUCUGUAAGAGACUCCAACUUCGGAGGAGGUCUCAGGAGGGGAAAUUUCAACAGAGGAUUGAGCAUCA
B15: 179959653_179961213_610_CDS_ENSG00000135837_ENST00000367607|human|control|control (ssRNA)
RNA: GGGAGUUCUACAGUCCGACGAUCAUCCAGGUAUCUACCAUCUUUUCUACUUAUUUUUCGAGUAGCACUUGUAGAAGACUUCUUGGUAUCCAUGACAGAAUCACACACAGCUGUACUUGUAGGGGCUACUUCUAAUUUAUUUUCCAACAGAGGAUUGAGCAUCA
B16: chr7:141445308:141445309:+_ENSG00000106028_ENST00000265304|hu_hu|hu_hu_hu_mus_False|18_58 (ssRNA)
RNA: GGGAGUUCUACAGUCCGACGAUCUAUGAUUGUUGUUGCUUGCCGCCUCACAUUGUUUUUAUCCAUGUACUCGCCAUAGUCUAUUUUCCCUUCCACAAAUAUACGAGCCCCCUUUUUCACAUAUUGAUAUGCCACAUCUCUGAGCAACAGAGGAUUGAGCAUCA
B17: chr17:49239293:49239294:+_ENSG00000239672_ENST00000393196|hu_hu|motif|central (ssRNA)
RNA: GGGAGUUCUACAGUCCGACGAUCGAGAACUCACAGCUCCAAGAGCUUCCCUCCAAAUUAUGAUGAAGUUCCUGUAAAUAACGGGAUUUCCUACAGCCUGGUCCUCUGCCCAUGGGAAGGAGGGGAAAUGGAUGUGAAAAGCAACAACAGAGGAUUGAGCAUCA
B18: chr1:39494564:39494565:+_ENSG00000168653_ENST00000372967|hu_hu|hu_hu_hu_mus_True|68_88 (ssRNA)
RNA: GGGAGUUCUACAGUCCGACGAUCAUGCAUUCGCCUCAUCGUUUUGUGCCGAAGCAAGCACUCUUCGAAAUCAUCAUACUCUAUCUUGCACUCCUUUUUCGCCCGGGUCCCACCGAUCCCGUGUGCACACUCUAUCCACUCUUUCAACAGAGGAUUGAGCAUCA
B19: chr1:163112212:163112213:-_ENSG00000143248_ENST00000313961|hu_hu|hu_hu_hu_mus_False|28_98 (ssRNA)
RNA: GGGAGUUCUACAGUCCGACGAUCUUUUAUUAUCAGUAAGCAUGAGUUACAUACUAGGCAAAGUAUUGGAUACAAUAAUCAGGAAACAAACACUAUUGGUCCAGAAUUUAAAAUAUAAUGAGCGAAGUGCUGGCACAGGACUUACAACAGAGGAUUGAGCAUCA
B20: chr3:95127578:95127579:-_ENSMUSG00000015697_ENSMUST00000107170|mus_mus|motif|central (ssRNA)
RNA: GGGAGUUCUACAGUCCGACGAUCGGUUAUGUAACAUUUUUAGUUAAAAAUUACACAGGGCAAAUAAAAUCGAGGUAUAAACGGAUGAUAGUUGCCCACUGGGAAAUGACAUGGAAGAUCAAGGCAGGAGAUAAGACAAACCACCAACAGAGGAUUGAGCAUCA
B21: chrX:20248820:20248821:+_ENSMUSG00000001924_ENSMUST00000001989|mus_mus|mus_mus_mus_hu_True|8_8 (ssRNA)
RNA: GGGAGUUCUACAGUCCGACGAUCGGCGAAGUCCGUCACCACAAAGUCAGGUUCUGCCAGUGAGGCCACCAAGGAUUUAAAGCUAAUCUUCUUAGGUACUUUGACCUGACUGACGAUGCCUCCACGGAUGUAGUCAGAGAAGUUCAACAGAGGAUUGAGCAUCA
B22: chr4:17845017:17845018:+_ENSG00000109805_ENST00000514176|hu_mus|hu_hu_hu_mus_False|8_38 (ssRNA)
RNA: GGGAGUUCUACAGUCCGACGAUCGCUCUCUUAACUUGUAUCUUCAUUAAGGAACUCUGCAAGGUUAAGUUUACUUUUCUGUAGCGCAGCUGUUUUGCUCGUCUUGGGUAAUCUCAUCUUCAUUUCUAUUCUGGUUCCAUGAUCCAACAGAGGAUUGAGCAUCA

Binding signal data for 22 molecules are collected here from article PMC12136788.

The list shows a part of the results.

The target of this test is T1, UNK ZnF1-3 (human, UniProt Q9C0B0 31-174).
T1 sequence: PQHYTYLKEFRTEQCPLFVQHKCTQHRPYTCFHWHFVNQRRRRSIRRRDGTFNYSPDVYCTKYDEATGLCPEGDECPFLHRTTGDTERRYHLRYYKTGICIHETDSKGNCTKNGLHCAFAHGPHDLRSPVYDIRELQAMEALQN
The test is described as follows: nsRBNS (natural sequence RNA bind-n-seq); RBNS binding buffer (assumed for nsRBNS): 25 mM Tris pH 7.5, 150 mM KCl, 3 mM MgCl2, 0.01% Triton X-100, 500 ug/ml BSA, 20 U/ml SUPERase-In, 4 C; UNK is unkempt and MSI1 is Musashi-1; names of the RNAs are library labels; protein concentration not given here; high values mean tight binding.
B1 yielded a binding signal of 0.86 enrichment R.
Then B2, with 0.56 enrichment R; and B3, with 0.983 enrichment R; and B4, with 0.971 enrichment R.
For B5, the binding signal is 1.44 enrichment R.
Then B6, with 0.346 enrichment R; and B7, with 1.8 enrichment R; and B8, with 1.07 enrichment R.
Then B9, with 0.934 enrichment R.
With B10 the figure was 0.415 enrichment R; with B11, 0.821 enrichment R; with B12, 0.826 enrichment R.
B13 had a binding signal of 0.383 enrichment R.
With B14 the figure was 1.98 enrichment R; with B15, 0.837 enrichment R; with B16, 0.61 enrichment R.
With B17 the figure was 1.41 enrichment R.
With B18 the figure was 0.697 enrichment R; with B19, 1.9 enrichment R; with B20, 1.38 enrichment R.
B21 displayed a binding signal of 1.06 enrichment R.
With B22 the figure was 0.4 enrichment R.
